According to PubChem BioAssay AID1030 (National Center for Advancing Translational Sciences (NCATS), 2008):
About 16,000 (7.3%) of roughly 220,000 compounds were called active. Inconclusive results, whose numbers are uncertain, are shown with a selection of clear calls. Calls come from the whole dose curve; as a rule, active = well fitted inhibition curve with a large enough effect (not every such curve was filed as active); inconclusive = small, poorly fitted or top-dose-only effect, or another doubt; inactive = no such curve, though single readings can be large or run the other way. Potencies of inconclusive entries are left out as doubtful fits.

target: Aldehyde dehydrogenase 1A1 (Homo sapiens) (UniProt P00352); experiment: qHTS Assay for Inhibitors of Aldehyde Dehydrogenase 1 (ALDH1A1); conditions: Purified ALDH1A1, NADH fluorescence, propionaldehyde substrate; series mostly up to 75.3 µM
Potency is the fitted concentration of half-maximal effect; tags give direction and shape of the fitted curve.

Sequence of UniProt P00352 (P00352 whole entry, looked up): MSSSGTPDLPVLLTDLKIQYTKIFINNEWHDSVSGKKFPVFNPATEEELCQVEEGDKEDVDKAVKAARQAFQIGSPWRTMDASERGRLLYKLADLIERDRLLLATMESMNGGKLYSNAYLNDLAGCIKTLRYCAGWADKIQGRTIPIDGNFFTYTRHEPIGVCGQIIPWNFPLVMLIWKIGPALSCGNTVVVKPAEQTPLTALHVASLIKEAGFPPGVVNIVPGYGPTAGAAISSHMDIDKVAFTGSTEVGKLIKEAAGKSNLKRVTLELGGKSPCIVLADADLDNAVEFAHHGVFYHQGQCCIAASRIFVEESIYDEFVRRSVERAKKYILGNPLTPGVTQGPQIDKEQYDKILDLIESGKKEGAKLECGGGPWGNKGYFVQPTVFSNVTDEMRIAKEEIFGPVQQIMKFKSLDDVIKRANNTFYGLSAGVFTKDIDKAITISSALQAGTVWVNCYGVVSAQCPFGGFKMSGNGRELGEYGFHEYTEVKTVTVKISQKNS

SMILES	Potency
CCC1SC2=NC(C)=C(C(=O)OCC(C)C)C(/C=C/c3ccccc3OC)N2C1=O (centres undefined)	inactive
O=C(COc1ccc2ccc(=O)oc2c1)Nc1ccc2c(c1)OCCO2	inconclusive [inhibitor, partial curve]
O=C1S/C(=C\c2ccc(N3CCOCC3)o2)C(=O)N1Cc1ccc(F)cc1	active: 8.91 µM
O=C(N/N=C/c1ccc(O)c([N+](=O)[O-])c1)C1CC1(c1ccccc1)c1ccccc1 (centres undefined)	inactive
Cc1ccc(-c2n[nH]c(=O)c3ccccc23)cc1S(=O)(=O)NC(C)(C)C	inconclusive [inhibitor, single point]
CCn1c(CC(C)C)n[nH]c1=S	inactive
CC(=O)NCCc1ccc(O)c(O)c1	active: 28.2 µM
O=C(CCCCCNC(=O)c1ccccc1Br)N=Nc1c(O)[nH]c2ccccc12	inconclusive [inhibitor, single point]
Cc1cc(C)nc(SCc2nnc(SCc3ccccc3Cl)o2)n1	inactive
CC1=CC2C(=O)c3cccc(O)c3C(=O)C2C(O)=C1 (centres undefined)	inconclusive [inhibitor, single point]
COc1ccc(N=c2oc3cc(O)ccc3cc2C(=O)NCC2CCCO2)c(OC)c1 (centres undefined)	inconclusive [inhibitor, partial curve]
Cn1c(=O)c2cn(-c3ccccc3)cc2n(C)c1=O	inconclusive [inhibitor, single point]
Cc1snc(SCC(=O)N/N=C(\N)COc2ccc(F)cc2)c1C#N	inconclusive [inhibitor, single point]
COc1ccc(S(=O)(=O)N(Cc2cccs2)C2CCCC2)cc1	active: 8.91 µM
CCn1cc(C(=O)N2CCc3ccccc32)c(=O)c2cc(S(=O)(=O)N(C)C3CCCCC3)ccc21	inconclusive [inhibitor, single point]
CCOc1cc(/C=N/OC(C)=O)ccc1OCc1ccccc1	inconclusive [inhibitor, single point]
COc1ccc(/C=N/S(=O)(=O)c2cccs2)cc1	inconclusive [inhibitor, single point]
NC(=O)C1CCN(CC(=O)N2N=CCC2c2ccccc2)CC1 (centres undefined)	inactive
Cc1c(Cl)cccc1NC(=S)N(Cc1cccnc1)Cc1ccccc1Cl	inconclusive [inhibitor, partial curve]
Cn1c(SCC(=O)Nc2cccc(S(=O)(=O)N3CCOCC3)c2)nnc1-c1ccncc1	inconclusive [inhibitor, partial curve, poor fit]
COc1ccccc1OCc1csc(N)n1	inconclusive [inhibitor, full curve]
O=C(CSc1ccc(-c2cccs2)nn1)N1CCCCC1	inconclusive [inhibitor, single point]
Cc1ccc(C(NC(=O)C(C)C)c2cc([N+](=O)[O-])c3cccnc3c2O)cc1 (centres undefined)	inactive
CC1(C)N=C(c2ccccc2)C(=O)N1	inconclusive [inhibitor, single point]
C=CCn1c(COc2ccccc2F)nnc1SCCN1C(=O)c2ccccc2C1=O	inactive

SMILES	Potency
Cc1ccc(S(=O)(=O)N2CCC(=O)N(C(COCc3ccccc3)Cc3ccccc3)CC2)cc1 (centres undefined)	inconclusive [inhibitor, partial curve]
Cc1ccccc1NC(=O)Cn1cccc1	inactive
CN(c1ccccc1C(=O)Nc1ccc(S(=O)(=O)N2CCCC2)cc1)S(C)(=O)=O	active: 12.6 µM
CCN(CC)CCCC(C)n1c(-c2ccccc2)nc2c(NCCOC)nc(C)nc21 (centres undefined)	inconclusive [inhibitor, partial curve]
COc1ccc(S(=O)(=O)N2CCCCCC2)cc1C(=O)OCC(=O)NC(N)=O	inconclusive [inhibitor, partial curve]
CN(C)S(=O)(=O)c1ccc(C(=O)NCc2cccs2)cc1	inconclusive [inhibitor, single point]
COc1ccc(COC(=O)NNC(=O)c2ccccc2Cl)cc1	inconclusive [inhibitor, single point]
CCCS(=O)(=O)N1CCN(Cc2ccc([N+](=O)[O-])cc2)CC1	inconclusive [inhibitor, partial curve]
Cc1ccc(C(=O)Nc2ccc(N3CCOCC3)nc2N2CCOCC2)cc1	inconclusive [inhibitor, single point]
COc1ccc(-n2cc(C#N)c(=O)n(Cc3ccc(F)cc3)c2=O)cc1	inconclusive [inhibitor, single point]
CCCOc1ccc(C(=O)Nc2ccc(S(=O)(=O)Nc3cc(C)nc(C)n3)cc2)cc1	inconclusive [inhibitor, single point]
OCCNCCCOc1cc(Cl)ccc1Cl	inconclusive [inhibitor, full curve, poor fit]
C(=C\c1ccccc1)/CSc1nnc(-c2ccncc2)n1Cc1ccco1	inconclusive [inhibitor, single point]
C/C=C1\C2C=C(C)C[C@@]1(N)c1ccc(=O)[nH]c1C2	inactive
Cc1ccc(-n2nnnc2-c2cnn(-c3ccc(F)cc3)c2C(F)(F)F)cc1	inactive
CCn1c(N)c(C(N)=O)sc1=S	active: 8.91 µM
O=C(Cn1nc(-c2ccccc2F)ccc1=O)NCc1ccc2c(c1)OCO2	inconclusive [inhibitor, partial curve]
CCCCCCCCO	inconclusive [inhibitor, single point]
CC(C)C(=O)N1CCN(c2ccc(NC(=O)c3ccc([N+](=O)[O-])o3)cc2)CC1	inconclusive [inhibitor, partial curve]
CC(C)(CCl)C(=O)Nc1ccc(C(F)(F)F)cc1	inactive
CCc1nnc(NC(=O)CN2CCOCC2)s1	inactive
CCc1ccc(Nc2nnc(SCC(=O)Nc3cccc(S(=O)(=O)NC4=NCCCCC4)c3)s2)cc1	active: 17.8 µM
Cc1ccccc1OCCCn1c(=O)sc2ccccc21	inactive
COCCNC(=O)/C(C#N)=C1\N=C(N)c2ccccc21	inconclusive [inhibitor, single point]
COc1ccc(-n2c(=O)c(-c3cccs3)nc3cnc(N4CCNCC4)nc32)cc1	inconclusive [inhibitor, partial curve]

SMILES	Potency
COc1ccc(-c2c[n+]3c4n2CCCCC4=C(c2ccccc2)C3)cc1	inconclusive [inhibitor, partial curve]
CC1=C(C(=O)Nc2cc(C)ccc2C)C(c2cccs2)NC(=S)N1 (centres undefined)	active: 5.62 µM
Cc1oc2cc(OCc3cnn(-c4ccccc4)c3)ccc2c(=O)c1Oc1ccccc1F	active: 5.01 µM
CCn1c(C(=O)N2CCc3ccccc3C2)cc2sccc21	inactive
CC(Nc1cc(N2CCN(C(=O)C(C)(C)C)CC2)ccc1[N+](=O)[O-])c1ccccc1 (centres undefined)	inconclusive [inhibitor, single point]
O=C(/C=C/c1ccccc1)NCc1ccco1	active: 5.97 µM
O=C(NCCN1C(=O)S/C(=C\c2ccc(OC(F)F)cc2)C1=O)c1cnccn1	inactive
CCn1c(SCc2cccc(C(F)(F)F)c2)nnc1-c1ccco1	inconclusive [inhibitor, single point]
CCOC(=O)C1(CCCc2ccccc2)CCN(C(=O)CCC2=NNC(=O)CC2)CC1	active: 2 µM
COc1ccc(C(CNC(=O)c2cccc(Br)c2)N2CCCC2)cc1 (centres undefined)	inactive
CC1=C/C(=N\OS(=O)(=O)c2ccccc2)C(C(C)C)=CC1=O	inconclusive [inhibitor, partial curve, poor fit]
CC(C)(C)c1nnc2sc(SC/C(O)=C(\C#N)c3nc4ccccc4[nH]3)nn2c1=O	inconclusive [inhibitor, partial curve]
COC(=O)c1cc(Sc2c(Cl)cccc2Cl)ccn1	inconclusive [inhibitor, single point]
CC(C)(C)NC(=O)CN(C(=O)C(=O)Nc1ccc2c(c1)OCCO2)C(C)(C)C	inactive
CCCc1cc(=O)[nH]c(Nc2ccc(N3CCCCC3)cc2)n1	inactive
CC[C@H]1C(O)C[C@H]2CCN3C(=O)CCC[C@H]1[C@H]23 (some centres undefined)	inactive
O=C(c1cnccn1)N1CCC2(CCCN(c3cccc(-c4ccccc4)c3)C2)CC1	inactive
COc1ccc(C(=O)/C=C2/Sc3cc4c(cc3N2C)OCO4)cc1	inconclusive [inhibitor, single point]
Cc1ccccc1-c1nn2c(-c3ccccc3)nnc2s1	inconclusive [inhibitor, single point]
Nn1c(SCC(=O)Nc2ccc(Oc3ccccc3)cc2)nnc1C1CC1	inconclusive [inhibitor, single point]
COc1ccc(C2(O)CC3CCC(C2)N3c2nc(C)cc(C)c2C#N)cc1 (centres undefined)	inconclusive [inhibitor, partial curve]
O=C(Nc1nc(-c2ccc(Cl)cc2Cl)cs1)c1ccc(OCC2CCCO2)cc1 (centres undefined)	inconclusive [inhibitor, single point]
O=C(NCc1ccccc1)c1ccc2c(=O)[nH]c3c(C(=O)NCC4CCCO4)sc(=S)n3c2c1 (centres undefined)	active: 20 µM
CCOC(=O)C1=C(CSc2nc3c(cc2C#N)CN(C)CC3)OC(N)=C(C#N)C1c1ccc(F)cc1 (centres undefined)	inconclusive [inhibitor, single point]
